# Assay results reported in PMC4336329 (PLoS ONE, 2015).
# In all, about 310,000 compounds went through this assay and about 14,000 (4.5%) showed an effect of 50% or more. Effects have a minus sign here. The list shows a part of the results.
# Target: human ether-à-go-go-related gene (hERG) potassium channel (human, UniProt Q12809)
# Assay: primary screen, population patch clamp on CHO cells stably expressing hERG
# 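Note: peak tail current of the secondary pulse compared with the same well before compound.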
# human ether-à-go-go-related gene (hERG) potassium channel, sequence (Q12809 whole entry, looked up): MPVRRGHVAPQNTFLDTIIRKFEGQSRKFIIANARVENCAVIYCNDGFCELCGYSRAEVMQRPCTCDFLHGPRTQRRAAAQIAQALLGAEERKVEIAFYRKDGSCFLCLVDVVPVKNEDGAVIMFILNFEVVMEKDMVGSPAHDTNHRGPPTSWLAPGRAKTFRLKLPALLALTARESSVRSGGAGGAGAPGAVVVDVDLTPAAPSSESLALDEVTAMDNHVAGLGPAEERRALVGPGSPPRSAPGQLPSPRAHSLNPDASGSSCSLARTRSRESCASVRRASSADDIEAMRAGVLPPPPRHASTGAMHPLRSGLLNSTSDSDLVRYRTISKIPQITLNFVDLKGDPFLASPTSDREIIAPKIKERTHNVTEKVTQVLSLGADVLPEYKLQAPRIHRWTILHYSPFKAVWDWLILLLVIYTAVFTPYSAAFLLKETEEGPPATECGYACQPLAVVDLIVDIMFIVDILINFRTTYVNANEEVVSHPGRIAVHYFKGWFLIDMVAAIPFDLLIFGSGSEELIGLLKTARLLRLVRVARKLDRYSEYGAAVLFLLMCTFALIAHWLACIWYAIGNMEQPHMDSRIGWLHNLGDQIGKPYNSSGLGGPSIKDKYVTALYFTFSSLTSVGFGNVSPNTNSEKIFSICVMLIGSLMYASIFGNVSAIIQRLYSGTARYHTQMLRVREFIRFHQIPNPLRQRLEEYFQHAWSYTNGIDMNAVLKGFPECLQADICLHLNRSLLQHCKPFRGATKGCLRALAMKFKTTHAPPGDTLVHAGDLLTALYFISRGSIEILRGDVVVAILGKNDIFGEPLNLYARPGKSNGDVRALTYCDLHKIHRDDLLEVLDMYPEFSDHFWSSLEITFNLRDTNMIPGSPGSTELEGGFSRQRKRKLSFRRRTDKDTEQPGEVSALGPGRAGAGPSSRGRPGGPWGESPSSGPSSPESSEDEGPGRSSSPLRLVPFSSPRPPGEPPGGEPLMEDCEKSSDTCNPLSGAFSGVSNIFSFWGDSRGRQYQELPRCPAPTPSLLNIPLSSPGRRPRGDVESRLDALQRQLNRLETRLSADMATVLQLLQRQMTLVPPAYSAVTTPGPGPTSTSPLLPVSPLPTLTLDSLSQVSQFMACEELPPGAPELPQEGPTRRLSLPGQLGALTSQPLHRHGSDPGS
row,Compound,"hERG current change (%, negative = inhibition) at 10uM"
1,CCOc1ccc(NC(=O)Cc2ccc(S(=O)(=O)N3CCOCC3)s2)cc1OCC,6.26%
2,Cc1cc(C)cc(NC(=O)C2C3C=CC(O3)C2C(=O)O)c1 (stereo not shown),23%
3,CCOc1cc(-c2c(C#N)c(N)nc3c2CCCC3C)ccc1O (stereo not shown),-22.2%
4,CC(C(=O)N1CCCCC1)n1sc2ccccc2c1=O (stereo not shown),-0.672%
5,O=C(NC(=S)Nc1ccc(CN2CCOCC2)cc1)c1ccco1,0.314%
6,C=CCNC(=O)CN(CCc1ccccc1)S(=O)(=O)c1ccccc1,-17.6%
7,CSCCC(NC(=O)CCC(=O)OC1CC[C@H]2[C@@H]3CC[C@H]4CC(=O)CC[C@]4(C)[C@H]3CC[C@]12C)C(=O)O (stereo partly shown),22.6%
8,CN(C)C(CNC(=O)c1cc(S(=O)(=O)N(C)c2ccccc2)ccc1Cl)c1ccccc1 (stereo not shown),-39.6%
9,CCn1c(NCc2ccccc2NS(=O)(=O)c2ccc(C)cc2)nc2ccccc21,1.94%
10,Cc1ccccc1COc1ccc(-c2nn[nH]n2)cc1,13%
11,CCCN(CC(=O)Nc1ccccc1C)C(=O)Cc1c(C)nc2ccccc2c1C,-77.4%
12,COc1ccc(-n2ncc3c(NCC4CCCO4)ncnc32)cc1 (stereo not shown),12.7%
13,CCC(=O)NCCC(c1ccco1)c1ccccc1OC (stereo not shown),13.6%
14,CCOC(=O)c1cnc(SCC#N)nc1N,28.5%
15,Cc1cccc(OCC(O)CN2CCN(S(=O)(=O)c3ccc(C)cc3C)CC2)c1 (stereo not shown),-17.5%
16,COc1ccc(C2C(C#N)=C(N)Oc3cc(O)ccc32)cc1Cl (stereo not shown),7.21%
17,O=C1CC(c2c(F)cccc2Cl)C2=C(COC2=O)N1 (stereo not shown),0.223%
18,COC(=O)CCc1c(C)[nH]c(=S)[nH]c1=O,3.11%
19,Cc1cc(NC2CCCCC2)nc(NCc2ccccc2)n1,-23.6%
20,CCOc1cc(/C=C2\C(=O)N(CCc3ccc(OC)c(OC)c3)C(C)=C2C(=O)OC)ccc1O,20.5%
21,Cc1ccc(OCC(=O)Nc2nc(-c3ccccn3)cs2)c(C)c1,8.16%
22,CC(C)Cc1nc(C#N)c(N2CCC(C(N)=O)CC2)o1,-5.11%
23,COc1ccc(N(CC(=O)NCCSc2ccccc2)S(C)(=O)=O)cc1,8.91%
24,O=C(NCCc1c[nH]c2ccccc12)/C(=C\c1ccco1)NC(=O)c1ccco1,-21.3%
25,Nc1ccn(C2CC(O)C(CO)O2)c(=O)n1 (stereo not shown),5.3%
